# According to the supplement of paper PMC8728848:
# The list shows a part of the results.
# Assays:
# Test in all cases: glycan array binding signal (z-score within array); higher = stronger binding
# Settings in all cases: glycan notation: IUPAC condensed, linker removed
# [1] = target: Gal(b1-3)GlcNAc(b1-2)Man(a1-3)[Gal(b1-3)GlcNAc(b1-2)Man(a1-6)]Man(b1-4)GlcNAc(b1-4)[Fuc(a1-6)]GlcNAc
# Procedure, shortened: (§1)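 Glycan array data were curated from 3228 arrays in the Consortium for Functional Glycomics database and kept only where the protein sequence was available. Glycan names were converted to IUPAC-condensed notation, and columns mapping to the same glycan were averaged. The binding signal is a within-array Z-score, averaged across arrays of the same protein sequence at different concentrations or buffers and across linkers. Negative Z-scores can be read as non-binding.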
# [2] = target: Gal(b1-3)GlcNAc(b1-2)Man(a1-3)[GlcNAc(b1-4)][Gal(b1-3)GlcNAc(b1-2)Man(a1-6)]Man(b1-4)GlcNAc(b1-4)GlcNAc
# Procedure, shortened: as §1
# [3] = target: Gal(b1-3)GlcNAc(b1-2)[Gal(b1-3)GlcNAc(b1-6)]Man(a1-6)[Gal(b1-3)GlcNAc(b1-2)Man(a1-3)]Man(b1-4)GlcNAc(b1-4)GlcNAc
# Procedure, shortened: as §1
# [4] = target: Gal(b1-3)GlcNAc(b1-3)Gal(b1-3)GlcNAc
# Procedure, shortened: as §1
# [5] = target: Gal(b1-3)GlcNAc(b1-3)Gal(b1-4)Glc
# Procedure, shortened: as §1
# [6] = target: Gal(b1-3)GlcNAc(b1-3)Gal(b1-4)GlcNAc
# Procedure, shortened: as §1
# [7] = target: Gal(b1-3)GlcNAc(b1-3)Gal(b1-4)GlcNAc(b1-2)Man(a1-3)[Gal(b1-3)GlcNAc(b1-3)Gal(b1-4)GlcNAc(b1-2)Man(a1-6)]Man(b1-4)GlcNAc(b1-4)GlcNAc
# Procedure, shortened: as §1
# [8] = target: Gal(b1-3)GlcNAc(b1-3)Gal(b1-4)GlcNAc(b1-2)[Gal(b1-3)GlcNAc(b1-3)Gal(b1-4)GlcNAc(b1-6)]Man(a1-6)[Gal(b1-3)GlcNAc(b1-3)Gal(b1-4)GlcNAc(b1-2)Man(a1-3)]Man(b1-4)GlcNAc(b1-4)[Fuc(a1-6)]GlcNAc
# Procedure, shortened: as §1
# [9] = target: Gal(b1-3)GlcNAc(b1-3)Gal(b1-4)GlcNAc(b1-3)Gal(b1-4)GlcNAc(b1-2)[Gal(b1-3)GlcNAc(b1-3)Gal(b1-4)GlcNAc(b1-3)Gal(b1-4)GlcNAc(b1-6)]Man(a1-6)[Gal(b1-3)GlcNAc(b1-3)Gal(b1-4)GlcNAc(b1-3)Gal(b1-4)GlcNAc(b1-2)Man(a1-3)]Man(b1-4)GlcNAc(b1-4)[Fuc(a1-6)]GlcNAc
# Procedure, shortened: as §1
# [10] = target: Gal(b1-3)GlcNAc(b1-3)Gal(b1-4)GlcNAc(b1-6)[Gal(b1-3)GlcNAc(b1-3)]Gal(b1-4)Glc
# Procedure, shortened: as §1
# [11] = target: Gal(b1-3)GlcNAc(b1-3)Gal(b1-4)[Fuc(a1-3)]GlcNAc
# Procedure, shortened: as §1
# [12] = target: Gal(b1-3)GlcNAc(b1-3)Gal(b1-4)[Fuc(a1-3)]GlcNAc(b1-6)[Gal(b1-3)GlcNAc(b1-3)]Gal(b1-4)Glc
# Procedure, shortened: as §1
# [13] = target: Gal(b1-3)GlcNAc(b1-3)GalNAc
# Procedure, shortened: as §1
# [14] = target: Gal(b1-3)GlcNAc(b1-6)Gal(b1-4)GlcNAc
# Procedure, shortened: as §1
# [15] = target: Gal(b1-3)GlcNAc(b1-6)GalNAc
# Procedure, shortened: as §1
# [16] = target: Gal(b1-3)GlcNAc(b1-6)[Gal(b1-3)]GalNAc
# Procedure, shortened: as §1
# [17] = target: Gal(b1-3)GlcNAc6S
# Procedure, shortened: as §1
# [18] = target: Gal(b1-3)[Fuc(a1-4)]GlcNAc
# Procedure, shortened: as §1
# [19] = target: Gal(b1-3)[Fuc(a1-4)]GlcNAc(b1-2)Man
# Procedure, shortened: as §1
# [20] = target: Gal(b1-3)[Fuc(a1-4)]GlcNAc(b1-2)Man(a1-3)[Gal(b1-3)[Fuc(a1-4)]GlcNAc(b1-2)Man(a1-6)]Man(b1-4)GlcNAc(b1-4)[Fuc(a1-6)]GlcNAc
# Procedure, shortened: as §1
# [21] = target: Gal(b1-3)[Fuc(a1-4)]GlcNAc(b1-3)Gal(b1-3)[Fuc(a1-4)]GlcNAc
# Procedure, shortened: as §1
# [22] = target: Gal(b1-3)[Fuc(a1-4)]GlcNAc(b1-3)Gal(b1-4)[Fuc(a1-3)]GlcNAc
# Procedure, shortened: as §1
# [23] = target: Gal(b1-3)[Fuc(a1-4)]GlcNAc(b1-6)GalNAc
# Procedure, shortened: as §1
# [24] = target: Gal(b1-3)[GlcNAc(b1-6)]GalNAc
# Procedure, shortened: as §1
# [25] = target: Gal(b1-3)[Neu5Ac(a2-6)]GalNAc
# Procedure, shortened: as §1
# [26] = target: Gal(b1-3)[Neu5Ac(a2-6)]GlcNAc(b1-4)Gal(b1-4)Glc
# Procedure, shortened: as §1
# [27] = target: Gal(b1-3)[Neu5Ac(b2-6)]GalNAc
# Procedure, shortened: as §1
# [28] = target: Gal(b1-4)Gal
# Procedure, shortened: as §1
# [29] = target: Gal(b1-4)GalNAc(a1-3)[Fuc(a1-2)]Gal(b1-4)GlcNAc
# Procedure, shortened: as §1
# [30] = target: Gal(b1-4)GalNAc(b1-3)[Fuc(a1-2)]Gal(b1-4)GlcNAc
# Procedure, shortened: as §1
# [31] = target: Gal(b1-4)Glc
# Procedure, shortened: as §1
# [32] = target: Gal(b1-4)Glc6S
# Procedure, shortened: as §1
# [33] = target: Gal(b1-4)GlcNAc
# Procedure, shortened: as §1
# [34] = target: Gal(b1-4)GlcNAc(a1-6)Gal(b1-4)GlcNAc
# Procedure, shortened: as §1
# [35] = target: Gal(b1-4)GlcNAc(b1-2)Man
# Procedure, shortened: as §1
# [36] = target: Gal(b1-4)GlcNAc(b1-2)Man(a1-3)Man(b1-4)GlcNAc(b1-4)GlcNAc
# Procedure, shortened: as §1
# [37] = target: Gal(b1-4)GlcNAc(b1-2)Man(a1-3)[Gal(b1-4)GlcNAc(b1-2)Man(a1-6)]Man(b1-4)GlcNAc(b1-4)GlcNAc
# Procedure, shortened: as §1
# [38] = target: Gal(b1-4)GlcNAc(b1-2)Man(a1-3)[Gal(b1-4)GlcNAc(b1-2)Man(a1-6)]Man(b1-4)GlcNAc(b1-4)[Fuc(a1-6)]GlcNAc
# Procedure, shortened: as §1
# [39] = target: Gal(b1-4)GlcNAc(b1-2)Man(a1-3)[Gal(b1-4)GlcNAc(b1-2)Man(a1-6)][Gal(b1-4)GlcNAc(b1-4)]Man(b1-4)GlcNAc(b1-4)[Fuc(a1-6)]GlcNAc
# Procedure, shortened: as §1
# [40] = target: Gal(b1-4)GlcNAc(b1-2)Man(a1-3)[Gal(b1-4)GlcNAc(b1-2)Man(a1-6)][GlcNAc(b1-4)]Man(b1-4)GlcNAc(b1-4)[Fuc(a1-6)]GlcNAc
# Procedure, shortened: as §1
# [41] = target: Gal(b1-4)GlcNAc(b1-2)Man(a1-3)[GlcNAc(b1-2)Man(a1-6)]Man(b1-4)GlcNAc(b1-4)GlcNAc
# Procedure, shortened: as §1
# [42] = target: Gal(b1-4)GlcNAc(b1-2)Man(a1-3)[GlcNAc(b1-4)][Gal(b1-4)GlcNAc(b1-2)Man(a1-6)]Man(b1-4)GlcNAc(b1-4)GlcNAc
# Procedure, shortened: as §1
# [43] = target: Gal(b1-4)GlcNAc(b1-2)Man(a1-3)[Man(a1-6)]Man(b1-4)GlcNAc(b1-4)GlcNAc
# Procedure, shortened: as §1
# [44] = target: Gal(b1-4)GlcNAc(b1-2)Man(a1-6)Man(b1-4)GlcNAc(b1-4)GlcNAc
# Procedure, shortened: as §1
# [45] = target: Gal(b1-4)GlcNAc(b1-2)Man(a1-6)[GlcNAc(b1-2)Man(a1-3)]Man(b1-4)GlcNAc(b1-4)GlcNAc
# Procedure, shortened: as §1
binder,measurement,setting,value
RBMC2 (Vibrio cholerae) (protein) KISVRSGFAIDAIGASASTLVGGTGGNLNAAVNVKDIKAIDLTWGKYYWGGYHLLALDFRMSNGSVISMGSKNYAYSKQTERFTVPAGSRIKGIKAWTAGWLLDGVQFELA,glycan array binding signal (z-score),[1],1.55
same,glycan array binding signal (z-score),[2],-0.232
same,glycan array binding signal (z-score),[3],-0.23
same,glycan array binding signal (z-score),[4],-0.371
same,glycan array binding signal (z-score),[5],-0.361
same,glycan array binding signal (z-score),[6],-0.35
same,glycan array binding signal (z-score),[7],0.919
same,glycan array binding signal (z-score),[8],0.071
same,glycan array binding signal (z-score),[9],-0.181
same,glycan array binding signal (z-score),[10],-0.372
same,glycan array binding signal (z-score),[11],-0.2
same,glycan array binding signal (z-score),[12],-0.278
same,glycan array binding signal (z-score),[13],-0.342
same,glycan array binding signal (z-score),[14],-0.056
same,glycan array binding signal (z-score),[15],-0.394
same,glycan array binding signal (z-score),[16],-0.139
same,glycan array binding signal (z-score),[17],-0.092
same,glycan array binding signal (z-score),[18],-0.311
same,glycan array binding signal (z-score),[19],-0.125
same,glycan array binding signal (z-score),[20],-0.354
same,glycan array binding signal (z-score),[21],-0.466
same,glycan array binding signal (z-score),[22],-0.424
same,glycan array binding signal (z-score),[23],-0.311
same,glycan array binding signal (z-score),[24],-0.344
same,glycan array binding signal (z-score),[25],-0.366
same,glycan array binding signal (z-score),[26],-0.417
same,glycan array binding signal (z-score),[27],-0.38
same,glycan array binding signal (z-score),[28],-0.359
same,glycan array binding signal (z-score),[29],-0.328
same,glycan array binding signal (z-score),[30],-0.345
same,glycan array binding signal (z-score),[31],-0.387
same,glycan array binding signal (z-score),[32],-0.178
same,glycan array binding signal (z-score),[33],-0.367
same,glycan array binding signal (z-score),[34],-0.466
same,glycan array binding signal (z-score),[35],-0.325
same,glycan array binding signal (z-score),[36],-0.272
same,glycan array binding signal (z-score),[37],-0.184
same,glycan array binding signal (z-score),[38],2.15
same,glycan array binding signal (z-score),[39],-0.242
same,glycan array binding signal (z-score),[40],-0.167
same,glycan array binding signal (z-score),[41],2.5
same,glycan array binding signal (z-score),[42],-0.15
same,glycan array binding signal (z-score),[43],-0.039
same,glycan array binding signal (z-score),[44],-0.452
same,glycan array binding signal (z-score),[45],3.21
